Experimental data from PubChem BioAssay AID720709 (National Center for Advancing Translational Sciences (NCATS), 2013).
Among all 360,000 compounds or so, about 520 (0.14%) were called active. Inconclusive means that the source gave no clear call. Such entries were picked first, then a sample of the others. Calls come from the whole dose curve; as a rule, active = well fitted inhibition curve with a large enough effect; inconclusive = small, poorly fitted or top-dose-only effect; inactive = no such curve, though single readings can be large or run the other way. No potency is given beside an inconclusive call; the fits are too rough.

target: Rap guanine nucleotide exchange factor 3 (Homo sapiens) (UniProt O95398); assay: qHTS for Antagonist of cAMP-regulated guanine nucleotide exchange factor 3 (EPAC1): primary screen; conditions: EPAC1 GEF assay, Rap1b-BODIPY-GDP exchange fluorescence; activity change, negative = inhibition: at 115 µM (top of the series); note: nearly all actives have a fitted effect of over 50% in size;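 for activity change, negative = inhibition: plate controls were vehicle for no effect and positive control for full effect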
UniProt O95398, sequence (O95398 whole entry, looked up): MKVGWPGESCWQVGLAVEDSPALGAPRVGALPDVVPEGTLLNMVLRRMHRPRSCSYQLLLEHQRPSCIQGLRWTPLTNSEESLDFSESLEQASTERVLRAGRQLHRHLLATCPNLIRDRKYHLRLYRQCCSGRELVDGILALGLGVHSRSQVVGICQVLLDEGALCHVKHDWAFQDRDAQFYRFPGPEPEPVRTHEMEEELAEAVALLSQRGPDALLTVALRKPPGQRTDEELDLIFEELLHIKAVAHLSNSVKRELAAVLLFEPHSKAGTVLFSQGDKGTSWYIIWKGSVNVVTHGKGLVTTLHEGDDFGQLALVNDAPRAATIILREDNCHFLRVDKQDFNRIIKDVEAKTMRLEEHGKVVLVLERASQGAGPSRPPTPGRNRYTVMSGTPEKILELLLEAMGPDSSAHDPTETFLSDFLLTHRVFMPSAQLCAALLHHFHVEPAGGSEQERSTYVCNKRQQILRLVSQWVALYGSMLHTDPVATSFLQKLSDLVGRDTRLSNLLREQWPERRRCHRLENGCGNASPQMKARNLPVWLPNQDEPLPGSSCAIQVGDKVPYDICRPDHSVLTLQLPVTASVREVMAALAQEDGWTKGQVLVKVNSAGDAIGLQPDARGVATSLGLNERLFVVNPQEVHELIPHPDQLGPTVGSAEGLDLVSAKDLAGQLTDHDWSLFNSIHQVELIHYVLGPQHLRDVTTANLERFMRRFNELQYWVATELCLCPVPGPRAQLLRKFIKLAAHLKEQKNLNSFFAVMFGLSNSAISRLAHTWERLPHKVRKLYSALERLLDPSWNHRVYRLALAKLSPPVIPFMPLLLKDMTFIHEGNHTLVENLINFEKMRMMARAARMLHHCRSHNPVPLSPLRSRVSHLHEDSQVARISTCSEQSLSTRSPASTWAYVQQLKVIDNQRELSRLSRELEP
Potency is the fitted concentration of half-maximal effect; tags give direction and shape of the fitted curve.

Compound | activity change, negative = inhibition | Potency
COC(=O)[C@@]12C[C@@H](CC(=O)NCCCCc3ccccc3)C(=O)N(CCc3ccc(OC)c(OC)c3)C1=CCC(C)(C)C2 | inactive: -23.2% | 
CC1(C)CC(=O)C2=C(C1)c1c(ccc3ccccc13)NC2c1cc([N+](=O)[O-])cc([N+](=O)[O-])c1O (centres undefined) |  | active: 31.6 µM
Cc1sc(NC(=O)c2sc3nc4c(C)cccc4cc3c2N)c(C#N)c1C |  | inconclusive [inhibitor, single point]
CC[C@H](C)/C=C/C1=CC2=C(Cl)C(=O)[C@@]3(C)OC(=O)C(C(=O)[C@H](C)[C@@H](C)O)=C3C2=CO1 |  | active: 50.1 µM
CN(C)NC(=S)Nc1cccc(Cl)c1 |  | inconclusive [inhibitor, single point]
Cc1ccc(S(=O)(=O)n2ccc3c(OCCOCCSCC(NC(=O)OC(C)(C)C)C(=O)O)cccc32)cc1 (centres undefined) |  | inconclusive [inhibitor, partial curve]
CC(Oc1ccc2c(=O)c(-c3ccc(Cl)cc3)c(C(F)(F)F)oc2c1)C(=O)O (centres undefined) | inactive: -7.59% | 
O=C(O)c1cccc(-n2cccc2/C=N/O)c1 | inactive: -0.228% | 
COc1cccc(CNC(=O)CCC(=O)N2CCSc3ccccc32)c1OC |  | inconclusive [inhibitor, single point]
CCOC(=O)C1=C(C)N(C[C@@H]2CC[C@@H](Cc3ccc(-c4ccccc4)cc3)O2)C(=O)NC1c1ccc(SCc2ccco2)c([N+](=O)[O-])c1 (some centres undefined) |  | inconclusive [inhibitor, partial curve]
Cc1ccsc1CN(C)C(=O)c1ccc(Oc2ccccc2)cc1 |  | inconclusive [inhibitor, partial curve]
Cc1ccc2c(c1)COc1c3ccc(C(=O)N4CCCCC4)cc3nn1-2 | inactive: -14.7% | 
Cc1ccc(-c2c3c(nc4sc(C(N)=O)c(N)c24)CCCC3)o1 |  | inconclusive [inhibitor, single point]
O=C(Nc1ccc(Cl)c(Cl)c1)c1cccc(S(=O)(=O)NCc2cccnc2)c1 |  | inconclusive [inhibitor, partial curve]
O=C(O)c1cc(N/N=C/c2ccncc2)ccc1Cl |  | inconclusive [inhibitor, partial curve]
CC(C)C[C@H](NC(=O)c1[nH]cnc1C(=O)N[C@@H](C)C(=O)OC(C)(C)C)C(=O)OC(C)(C)C |  | inconclusive [inhibitor, partial curve]
CCOC(=O)[C@]12CCCC=C1N(CCC1=CCCCC1)C(=O)[C@H](CC(=O)NCC1CCCCC1)C2 | inactive: -6.29% | 
COc1ccc(CN(C(=O)c2snc(C(N)=O)c2N)C(C(=O)NC2CCCC2)c2ccc(OC)c(OC)c2)cc1 (centres undefined) |  | inconclusive [inhibitor, full curve]
COc1ccccc1C1c2[nH]c3ccccc3c2C[C@H]2C(=O)N(C3CCN(Cc4ccccc4)CC3)CC(=O)N12 (some centres undefined) | inactive: -7.1% | 
Cc1onc(-c2ccccc2)c1C(=O)c1c[nH]c(C(=O)NCCCN2CCOCC2)c1 |  | inconclusive [inhibitor, single point]

Compound | activity change, negative = inhibition | Potency
CC1=C(C(=O)N(C(C)C)C(C)C)CC(CC(=O)NCc2cccc3ccccc23)C(=O)N1Cc1ccc(C(C)(C)C)cc1 (centres undefined) |  | inconclusive [inhibitor, full curve, poor fit]
CC(NC(=O)c1ccccc1)c1nnc(SCC(=O)NC2CCCC2)n1C (centres undefined) |  | inconclusive [inhibitor, single point]
COc1ccc(C(=O)Nc2ccc(C3=NNC(=O)CC3C)cc2NC(=O)c2ccc(OC)cc2)cc1 (centres undefined) |  | inconclusive [inhibitor, single point]
CC(=O)N1CCc2cc(S(=O)(=O)CCC(=O)N3CCN(c4ccccc4)CC3)ccc21 |  | inconclusive [inhibitor, partial curve]
Cc1cc(Cl)c2oc(C(=O)N3CCN(c4ccncc4)CC3)c(C)c2c1 |  | inconclusive [inhibitor, single point]
O=C(NNC(=O)C1CCCO1)c1ccc([N+](=O)[O-])cc1 (centres undefined) |  | inconclusive [inhibitor, single point]
Cc1ccc(N(Cc2cc(=O)[nH]c3ccccc23)C(=O)CCl)c(C)c1 |  | inconclusive [inhibitor, partial curve, poor fit]
O=C(c1cc2c(s1)CCCC2)N1CCN(CCO)CC1 |  | inconclusive [inhibitor, single point]
COC(=O)c1c(NC(=O)CSc2ccccc2N)sc(C)c1C |  | inconclusive [inhibitor, full curve]
O=S(=O)(c1ccccc1)N1CCN=C1SCc1ccccc1 | inactive: -13.3% | 
COc1cccc(CCNC(=O)CCc2nnc(-c3cc(C)oc3C)o2)c1 |  | inconclusive [inhibitor, single point]
COc1ccc([N+](=O)[O-])cc1N/C(=N/S(=O)(=O)c1ccccc1)c1ccccc1 |  | inconclusive [inhibitor, partial curve, poor fit]
CN(c1ccccc1)S(=O)(=O)c1ccc(C(=O)OCC(=O)NCc2ccco2)cc1 | inactive: -18.7% | 
COc1ccc(N2CCN(C(=O)c3oc4ccccc4c3NC(=O)Cc3cccc(OC)c3)CC2)cc1 |  | inconclusive [inhibitor, full curve, poor fit]
COc1ccccc1NC(=S)NC1CCC(CC2CCC(NC(=S)Nc3ccccc3OC)CC2)CC1 (centres undefined) | inactive: -2.79% | 
O=C(Oc1ccccc1/C=C\C(=O)c1cc2ccccc2o1)c1cccc(F)c1 |  | inconclusive [inhibitor, single point]
N#Cc1c(N2CCOCC2)nc(N2CCCCC2)c2c1CCN(C1CCCCC1)C2 | inactive: -16.8% | 
CCc1ccc2c(c1)NC(=O)C2(C)Cc1ccccc1C#N (centres undefined) |  | inconclusive [inhibitor, single point]
CC1(C(=O)NS(=O)(=O)c2cccs2)CCN1C(=O)C1(c2ccc(Cl)cc2)CCC1 (centres undefined) |  | inconclusive [inhibitor, partial curve]
